# Measured values taken from the supplement of paper PMC4604168 (melanoma cell lines).
# Some of the results follow. Many values rest on one well or one pass, so single values are uncertain.
# Experiments:
# Experiment in all cases: cell count relative to DMSO control; melanoma cells; higher = more viable cells
# Conditions in all cases: library dose: standard library concentration; 72 h
# [1] = tested on: SkMel28
# [2] = tested on: SkMel2
# [3] = tested on: SkMel30
# [4] = tested on: SkMel5
# [5] = tested on: UACC257
# [6] = tested on: UACC62
# [7] = tested on: WM115
# [8] = tested on: WM1716
# [9] = tested on: WM1745
# [10] = tested on: WM3526
# 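Note: cells treated in 1,536-well plates, then fixed and DAPI-stained, with nuclei counted from automated high-throughput microscope images.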
SMILES,cell count [1],cell count [2],cell count [3],cell count [4],cell count [5],cell count [6],cell count [7],cell count [8],cell count [9],cell count [10]
"CCc1ccc(CCOc2ccc(CC3SC(=O)NC3=O)cc2)nc1 (stereo not given) [pioglitazone] + CCN(CC)CCCCNc1ncc2cc(-c3cc(OC)cc(OC)c3)c(NC(=O)NC(C)(C)C)nc2n1 [PD173074] (first compound 10 µM, partner dose 0.5 µM)",66.7%,89.4%,99.6%,96.7%,98.2%,96.4%,93.7%,85.4%,83.1%,82.7%
"CCc1ccc(CCOc2ccc(CC3SC(=O)NC3=O)cc2)nc1 (stereo not given) [pioglitazone] + COc1cc(N2CCC(N3CCN(C)CC3)CC2)ccc1Nc1ncc(Cl)c(Nc2ccccc2S(=O)(=O)C(C)C)n1 [NVP-TAE684] (first compound 10 µM, partner dose 0.4 µM)",55.2%,75.7%,99.8%,72.8%,80.2%,78.9%,81.9%,80.5%,73.2%,81.8%
"Cc1ccc(NC(=O)c2cccc(N(C)C)c2)cc1NC(=O)c1ccc(O)cc1 + CO[C@@H]1[C@H](N(C)C(=O)c2ccccc2)C[C@H]2O[C@]1(C)n1c3ccccc3c3c4c(c5c6ccccc6n2c5c31)C(=O)NC4 [Midostaurin] (first compound 10 µM, partner dose 0.4 µM)",47.3%,47.5%,62.9%,52.5%,61.3%,70.2%,46.5%,35.6%,24.6%,62%
"CC(C)(C)c1cnc(CSc2cnc(NC(=O)C3CCNCC3)s2)o1 + COc1cc(N2CCC(N3CCN(C)CC3)CC2)ccc1Nc1ncc(Cl)c(Nc2ccccc2S(=O)(=O)C(C)C)n1 [NVP-TAE684] (first compound 0.05 µM, partner dose 0.4 µM)",39.6%,51.6%,108%,48.1%,92%,50.8%,63.1%,58%,49.3%,68.6%
"NC(=O)c1ccc(N(C(N)=O)c2c(F)cccc2F)nc1-c1ccc(F)cc1F + CC(C)C[C@H](NC(=O)[C@H](Cc1ccccc1)NC(=O)c1cnccn1)B(O)O [Bortezomib] (first compound 2 µM, partner dose 0.005 µM)",34.8%,51.2%,34.9%,36.2%,78.1%,49.7%,29.1%,14.4%,16%,30.8%
"CCCCCCCCc1ccc(CCC(N)(CO)CO)cc1 [fingolimod] + CC(=O)O[C@@]12CO[C@@H]1C[C@H](O)[C@@]1(C)C(=O)[C@H](O)C3=C(C)[C@@H](OC(=O)[C@H](O)[C@@H](NC(=O)OC(C)(C)C)c4ccccc4)C[C@@](O)([C@@H](OC(=O)c4ccccc4)[C@H]21)C3(C)C [Docetaxel] (first compound 10 µM, partner dose 0.0005 µM)",2.23%,0.319%,18.1%,49.8%,54%,12.7%,10.3%,33.5%,2.69%,31.4%
"CCc1ccc(CCOc2ccc(CC3SC(=O)NC3=O)cc2)nc1 (stereo not given) [pioglitazone] + CCCCCCCCCCCC1=C(O)C(=O)C=C(O)C1=O [Embelin] (first compound 10 µM, partner dose 6 µM)",85.6%,90.9%,109%,118%,79.5%,117%,85.9%,78.3%,75.2%,109%
